Measured values as given in the supplement of paper PMC11417369.
The list shows a part of the results.

Test system: PfSIP2 AP2 domain 1 (GST-tagged)
Assay: gcPBM binding intensity (ln(normalized median fluorescence intensity)); higher = stronger DNA binding
In short: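 In this array assay, P. falciparum DNA-binding domains with a GST tag, expressed in E. coli, were applied for 1 h to primer-extended double-stranded 36-bp intergenic genomic probes and negative controls on an Agilent 4 × 180k array. Bound protein was visualised with Alexa488 anti-GST antibody at 488 nm. Binding intensity is the highest Masliner-normalised natural-log median intensity across replicate spots of either probe orientation.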

Sequence	gcPBM binding intensity (ln)
AAATGTAAAATTTTATGTACATATATTTATATAATA [XGTACX_site3737]	7.22
ACAAATGAGATTATATGTACACATAACAAATTTACA [XGTACX_site3496]	7.04
ATGTTTTATAAAAGGCGTACACATATATTTAAGTAA [XGTACX_site6231]	8.36
TTTATTTATTTAATTACACACGAACATATAACCATT [CACACA_site7952]	7.24
AAATTGGGGCTTGTTACACACTTAGTGTGAGTTCTA [CACACA_site6417]	6.77
ATTTATAATATGTATACACACACATATATAAATATA [CACACA_site8729]	7.12
TATAATCATAAATACACACACATATATATATATATA [CACACA_site5224]	9.47
TTCTCATCCTTACATACACACACATATATATATATA [CACACA_site7914]	9.69
GTTCAATTATTTTTATGTACATATATTTTTTTCTTT [XGTACX_site2505]	7.46
GTTATTAAAAACGGGTGTACACATATATAAATATAT [XGTACX_site1234]	7.59
TATTTATTATAAAAATTGTATAAAATAATAATGCTC [GTGCAC_negctrl_site456]	7.02
ATTTCACAGAAACACACACACAATATATTTCCTTTT [CACACA_site3904]	6.84
GAAAAATGAAGAGAACAAAATTTTATGATATATATA [GTGCAC_negctrl_site231]	7.2
TTTCATAAATAAATATGTACATAATTAATAATAAAT [XGTACX_site5882]	7.03
CCTTGAACCCCACTAACACACACACCCACGCTCAGA [CACACA_site8976]	7.23
TATACATAGATATATACACACATATATTTATATACA [CACACA_site6328]	6.93
ATTACAAAAAAAAAAAAAAAAAAAAAAAAAAAAAAA [CACACA_negctrl_site448]	7.04
ATATGTATATATATTTGTACGTAAAATGAAATCTAA [XGTACX_site213]	7.45
AAATAGTATATAATATGTACATACATAAAAATGTAT [XGTACX_site3524]	6.95
ACCTATGTATATTATACACACTCCAAACTATTATTT [CACACA_site1817]	7.19
AAAGGTAAGCAGAATAGTACAGAAGAAAAAATATTT [XGTACX_site2941]	6.89
TTTTGTTTGTTCGTGACTACATTATGTTGTAAATAC [CACACA_negctrl_site604]	7.01

Sequence	gcPBM binding intensity (ln)
CAACATTTGAGACACACACACATACAAACAAACAAA [CACACA_site7538]	7.21
TATCCTATAAATAATACATGCATATATATATATATT [TGCATGCA_site638]	7.21
ATCAAAAAAAAAAAATTTTTTTTTTTGTTTGTTTCC [CACACA_negctrl_site1042]	6.9
AAGAAAATTAAATTAACACACATAAATATGTAAATA [CACACA_site6882]	6.61
CCAATAATATATAGAAGTACAGAAAAAAAAAAAAAA [XGTACX_site2049]	6.9
CCCTCTTCTCTCATATCACACATGTCATCCTTATCC [CACACA_site5078]	7.75
TATAAATATTTATAAACACACAAATATATATATTTA [CACACA_site27]	7.02
ATCAAAATGTTAAAGATACACACCTAACAAACACAA [CACACA_site955]	7.31
GCACGCTGTATGAATGCACACATTCATAGAATTGCT [CACACA_site8852]	6.88
TTATATATATAGAAGTGTACAAAATTTCCTAGACCT [XGTACX_site3900]	7.06
TATCGACATTTCATTTGTACATATATACATATATTT [XGTACX_site3346]	7
TTTTTCTCTTTAAGGTGTACAATAATACAGTAACCA [XGTACX_site300]	7.44
TTGTACGCAAAAAAAAAAAAAAAAAAATTAAAATTT [TGCATGCA_negctrl_site586]	7.28
ATATTAGTAACACAGACACACAAAAAAAAAAAAAAA [CACACA_site2176]	6.99
AGGAAAATACCTTAATGTACATAGAAAAGTAACATT [XGTACX_site8011]	6.9
TTTTTTATTATCAAAACATGCATTTTTTAAATGGAA [TGCATGCA_site557]	6.81
CACTTAACACAAGAGTGTACACATATATATATATAT [XGTACX_site686]	9.53
TTAAGAAGTTCTAAATGTACATACATAACCACGTTA [XGTACX_site7514]	7.13
GGGAAATATTGAAACACACACGAACGCACGTATTTC [CACACA_site6258]	6.85
ATAATATTTTCTTCTTATTGAATGCTTTAAATTTAC [CACACA_negctrl_site1273]	6.98
ACAAATAAGTTTTGTAGTACTGTGTATATATATATA [XGTACX_site6901]	9.06
TTAAACCGTGGGAGCACACACACACCCCCACCCATA [CACACA_site331]	7.51

Sequence	gcPBM binding intensity (ln)
TAATGAAATATACAGAGTACATTCTGTATATAGGAT [XGTACX_site7691]	6.89
GCATAAGAAAATAATTGTACAATTTACATACATAAA [XGTACX_site8286]	7.05
TATATATGTATATATATAAATATATATATATATATA [TGCATGCA_negctrl_site605]	9.29
TATAAATATATATACACACACACATTAATACATATA [CACACA_site3488]	7.21
AATATATACAATATATGTACATATATATACACATAT [XGTACX_site4190]	7.18
CTTTTATTAAAATTCACACACATAAACTTTTATAAA [CACACA_site7027]	6.96
CTTATATATATATCATGTACTTATGTATTTAAGAAT [XGTACX_site3307]	7.01
ACAATAAAAATTTATGCATGTGAATTGAAAAAAAAA [TGCATGCA_site1037]	6.84
AAATAAAACAAACACACACACACATACACAAAAAAA [CACACA_site3849]	7.23
GTTATTGAAAAAATAGTGCAATATAACAAAGTAAAA	8.9
TAATTTCTTATGTATTGTACAAATAATATATGATAT [XGTACX_site611]	7.19
GGAATGTAGGGTTTTACCAAAATAAAAATAACCATA [XGTACX_negctrl_site492]	6.84
TATATATTTCGGTGTGCACACTTTTTATTTTTATCC [CACACA_site1726]	8.4
TATATATATATATGTACACACATATATACCTTTCAT [CACACA_site2679]	9.51
ATAAAATACCTATAAACACACATATAAACAGACATA [CACACA_site7213]	7.09
TAAGAAAAAAAAAAAAAAAAAAAAAAAAAAAAAAAA [CACACA_negctrl_site760]	6.96
TAAAAATATTTTCATTGTACATATATATAAATATAT [XGTACX_site1123]	6.97
TATAAAAAAAAAAAATATATATATATATAAATATAA [TGCATGCA_negctrl_site367]	7.04
TCACCTATTTTTAACTGTACTGAAATGATATATATA [XGTACX_site1366]	7.28
TAATGAAATTGTAGTAGTACCTTCTTATAAATAAAA [XGTACX_site6747]	6.64
ATTTGTTACGGACATGCATGCGAATCAGGGTATATA [TGCATGCA_site154]	7.13
TTGAGGAAATAACAGTGTACAAACAAATTATTACCA [XGTACX_site7082]	6.85

Sequence	gcPBM binding intensity (ln)
TACATATATATATATATATATATATATATCATTATG [XGTACX_negctrl_site293]	7.75
ATGGTACATACATACACACACACAAAAAAAAAAAAA [CACACA_site1578]	7
GTTCAATTTTTAGGAAGTACAAAAAAAAAAAAGAAA [XGTACX_site7286]	7.11
CAAACCTATATACAAACATGCAATCCACATATTGGT [TGCATGCA_site756]	6.96
TATATTTGTATTGTTTGTACTTATATGAATTTATAT [XGTACX_site4228]	7.08
TATATTAGTGTTGACACACACAAAAAAAAAAAAAAA [CACACA_site1396]	7.12
TTTATTGACAATTTATGTACATATAATTGAAAAATA [XGTACX_site6634]	7.22
TTTGTGATATTATATTGTACCCTATATTTATTATAA [XGTACX_site4240]	7.16
GAATGGACGTTAGGGGGTACGTATAAAATTTATCAA [XGTACX_site683]	7.8
AAATAATGTTTGAATTGTACACATATTTGTGTTTCT [XGTACX_site4603]	7.06
GTGGAACGTATATTTTCACACACTCTCAAAAGTACA [CACACA_site8722]	6.83
ATGTTGCACAGTGGAAGAATTAAAAATAAATAAATA [XGTACX_negctrl_site581]	8.19
GTGGAACATATGAACTCACACACATTTTCACTTAAA [CACACA_site3683]	6.82
AATATTATAAATGTCACACATATATTCAAATATATA [CACACA_site4736]	6.83
AATTTTTGTATTTTTAGTACTTAATTTCAAAATAAC [XGTACX_site4234]	6.99
ATGAACATATCAATTCTCAAAATAGGATGAGAGCAT [CACACA_negctrl_site230]	6.88
TTTGTATATTATTTTAGTACATAACATTGAAGATAT [XGTACX_site6680]	7.15
ATATAAGGATTAATATGTACATATATATATATATTT [XGTACX_site1390]	7.2
TATTTTGAAACTAAAAGACATAGAGAAAACAAAAAA [CACACA_negctrl_site1306]	7.04
GACATTGATACCAGTAGTACCTATAGATGTTTGTTT [XGTACX_site5736]	6.95
TTATGGAATAATCACGTACACACAAGAAAAAAAAAA [CACACA_site526]	7.36
TTATAGAAAATGGAATAGAATGGAATGGAAGAAATA [CACACA_negctrl_site1086]	7.01
